Here are results for 20 variants from the RNAGym collection of RNA variant scans (doi:10.7554/elife.90254).

Sequences and labels used below:
B1: LINE1-full (parent)
chain: UACGUAGGUGGUUUUCCCCUGAUAGUGCUAAGGGGGCCUGGAAGUUUGGACUGGGCAGAGCUCAACACAGCGUGGCAAAGUGGCUGUGGCUAGACUGCCUCUCUGGAUUCCUCGUCACUCAGCAGGGCAUCUCUGAGAGAAAUGCC

Read counts are not given, so values of variants with three or more changes are uncertain.

Variants of B1 are the subject of the data set. Kind of data set: self-cleavage, relative activity (ratio to wild type); higher = more cleavage; in vitro, sequencing; the parent is a self-cleaving ribozyme.
Consider UACGUAGGUGGUUUUCCCCUGAUAGUGCUGAGGGGGCCUGGAAGUUUGGUCUGGGCAGAGCUCAACACAGCGUGGCAAAGUGGCCGUGGCUAGACUGCCUCUCUGGAUUCCUCGUCACUCAGCUGGGCAUCUCUGAGAGAAAUGCC, for which the self-cleavage was determined as 0.24.
For UACGUAGGUGGUUUUCCCCUGAUAGUGCUGAGGGGGCCUGGGAGUUAGGACUGGGCAGAGCUCAACACAGCGUGGCAAAGUGGCUGUGGCUAGACUGCCUCUCUGGAUUCCUCGUCACUCAGCAGGGCAUCUCUGAGAGAAAUGCC the value was 0.8; for UACGUAGGUGGUUUUCCCCUGAUAGUGCCAAGGGGGCCUGGAAGUUUGGACUGGGCAGAGCUCAACACAGCGUGGCAAAGUGGCUGUGGCUAGACUGCCUCUCUGGACUCCUCGUCACUCAGCAGGGCAUCUCCGAGAGAAAUGCC, 0.77.
With UACGUAGGUGGUUUUCCCCUGAUAGUGCUGAGGGGGCCUGGAAGUUUGGUCCGGGCAGAGCUCAACACAGCGUGGCAAAGUGGCUGUGGCUAGACUGCCUCUCAGGAUUCCUCGUCACUCAGCAGGGCAUCUCUGAGAGUAAUGCC the figure was 0.51; with UACGUAGGUGGUUUUCCCCUGAUAGUGCUCAGGGGGCCUGGAAGUUUGGACUGGGCAGAGCUCAACACAGCGUGGCAAAGUGGCUGUGGCUAGACUGCCUCUCUGGAUUCCUCGUCACUCGGUAGGGCAUCUCUGAGAGAAAUGCC, 1.35.
For UACGUAGGUGGUUUUCCCCUGAUAGUGCCAAGGGGGCCUGGAAGUUUGGACUGGGCAGAGCUCAACACAGCGUGGCAAAGUGGCUGUGGCUAGACUGCCUCUCUGGAAUCCUCGUCACUCAGCAGGGCAUCUCUGAGAGAGAUGCC the value was 1.53; for UACGUAGGUGGUUUUCCCCUGAUAGUGCCAAGGGGGCCUGGAAGUUUGGACUGGGCAGAGCUCAACACAGCGUGGCAAAGUGGCUGUGGCUAGACUGCCUCUCUGGACUCCUCGUCACUCAGCAGGGCAUCUCUGAGAGAAAUGCU, 1.25; for UACGUAGGUGGUUUUCCCCUGAUAGUGCUCAGGGGGCCUGGAAGUUUGGGCUGGGCAGAGCUCAACACAGCGUGGCAAAGUGGCUGUGGCUAGACUGCCUCUCAGGAUUCCUCGUCACUCAGCAGGGCAUCUCUGAGAGAAAUGCC, 0.55.
For UACGUAGGUGGUUUUCCCCUGAUAGUGCUCAGGGGGCCUGGAAGUUGGGACUGGGCAGAGCUCAACACAGCGUGGCAAAGUAGCUGUGGCUAGACUGCCUCUCUGGAUUCCCCGUCACUCAGCAGGGCAUCUCUGAGAGGAAUGCC, the self-cleavage stood at 0.52.
For UACGUAGGUGGUUUUCCCCUGAUAGUGCUGGGGGGGCCUGGAAGUUUGGACUGGGCAGAGCUCAACACAGCGUGGUAAAGUGGCUGUGGCUAGACCGCCUCUCUGGAUUCCUCGUCACUCAGCAGGGCAUCUCUGAGAGAAAUGCC the value was 0.14; for UACGUAGGUGGUUUUCCCCUGAUAGUGCUGGGGGGGCCUGGAAGUUUGGACUGGGCAGAGCUCAACACAGCGUGGCAAAGUGGCUGUGGCUAGACUGCCUCUCUGGAUUCCUCGUCAUUCGGCAGGGCAUCUCUGAGAGAAAUGCC, 0.48.
For UACGUAGGUGGUUUUCCCCUGAUAGUGCGAAGGGGGCCUGGAAGUUUGGAUUGGGCAGAGCUCAACACAGCGUGGCAAAGUGGCUGUGGCUAGACUGCCUCUCUGGAUUCCUCGUCACUCAGCAGGGCUUCUCUGUGAGAAAUGCC the value was 1.67; for UACGUAGGUGGUUUUCCCCUGAUAGUGCCAAGGGGGCCUGGAAGUUUGGACUGGGCAGAGCUCAACACAGCGUGGCAAAGUGGCUGUGGCUAGACUGCCUCUCUGGAUUCCUCGACACUCAGCAGGGCAUCUCUGAGAGAGAUGCC, 1.52.
For UACGUAGGUGGUUUUCCCCUGAUAGUGCGAAGGGGGCCUGGAAGCUUGGACUGGGCAGAGCUUAACACAGCGUGGCAAAGUGCCUGUGGCUAGCCUGCCUCUCUGGAUUCCUCGUCACUCAGCAGGGCAUCUCUGAGAGAAAUGCC the value was 0.61; for UACGUAGGUGGUUUUCCCCUGAUAGUGCUCAGGGGGCCUGGAAGGUUGGACUGGGCAGAGCUCAACACAGCGUGGCAAAGUGGCUGUGGCUAGACUGCCUCUCUGGAUUCCUCGUCACUCAGCAGGGCAUCUCUGAGAGAGAUGCC, 0.66; for UACGUAGGUGGUUUUCCCCUGAUAGUGCUCGGGGGGCCUGGAAGUUUGGACUGGGCAGAGCUCAACACGGCGUGGCAAAGUGGCUGUGGCUAGACUGCCUCUCUGGAUUCCUCGUCACUCAGCAGGGCAUCUCUGAGAGAAAUGCC, 0.
For the variant UACGUAGGUGGUUUUCCCCUGAUAGUGCUCAGGGGGCCUGGAAGUUUGGACUGGGCAGAGCUCAACACAGCGUGGCAAAGUGGCUGUGGCUAGACAGCCUCUCUGGAUUCCUCGUCACUCGGCAGGGCAUCCCUGAGAGAAAUGCC, the self-cleavage came to 0.22.
As for UACGUAGGUGGUUUUCCCCUGAUAGUGCCAAGGGGGCCUGGAAGUUUGGACUGGGCAGAGCUCAACACAGCGUGGCAAAGUGGCUGUGGCUAGACUGCCUCUCUGGAUUCCCCGUCACUCGGCAGGGCAUCUCUGAGAGAAAUGCC, the self-cleavage was 1.97.
For UACGUAGGUGGUUUUCCCCUGAUAGUGCUGUGGGGGCCUGGAAGUUUGGACUGGGCAGAGCUCAACACAGCGUGGCAAAGUGGCUGAGGCUAGACUGCCUCUCUGGAUUCCUCGUCACUCAGCAGGGCGUCUCUGAGAGAAAUGCC the value was 0.07.
For UACGUAGGUGGUUUUCCCCUGAUAGUGCUGUGGGGGCCUGGAAGUUUGGACUGGGCAGAGCUCAACACAGCGUGGCAAAGUGGCUGUGGUUAGACUGCCUCUCUGGAUUCCUCGUCACUCAGCAGGGCAUCUCUGAGAGAAAUGCC the value was 0.08.
